{"source": "the supplement of paper PMC12217912", "parents": {"B1": {"name": "TEV protease; numbered along this chain (parent)", "chain": "MGESLFKGPRDYNPISSSICHLTNESDGHTTSLYGIGFGPFIITNKHLFRRNNGTLVVQSLHGVFKVKDTTTLQQHLVDGRDMIIIRMPKDFPPFPQKLKFREPQREERICLVTTNFQTKSMSSMVSDTSCTFPSGDGIFWKHWIQTKDGQCGSPLVSTRDGFIVGIHSASNFTNTNNYFTSVPKNFMELLTNQEAQQWVSGWRLNADSVLWGGHKVFMVKPEEPFQPVKEATQL"}}, "note": "This is one part of the list. The full chains were built here from the parent and the listed change. Values near 0.05 are background.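 Note: Bxb1 expression induced with 0.2% (w/v) L-rhamnose at OD600 near 0.5, cultures sampled hourly, flipped fraction per protease–substrate barcode pair counted by paired-end Illumina sequencing.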"}
{"variants_of": "B1", "test": "raw area under fraction-flipped curve 0-4 h after induction (AUC4h, not background-subtracted), DNA-recorder readout of cleavage of the substrate (dimensionless); higher = more cleavage of the substrate by the protease variant", "details": "temperature: 34 °C; time window: 0-4 h after rhamnose induction"}
{"variant": "MGESLFKGPRDYNPISSSICHLTNESDGHTTSLYGIGFGPFIITNKHLFRRNNGTLVVQSLHGVFKVKDTTTLQQHLVDGRDMIIIRMPKDFPPFPQKLKFREPQREERICLVTTNFQTKSMSSMVSDTSCTFPSGDGIFWKHWIQTKDGQCGSPLVSTRDGFIVGIHSASNFTNTNNYFTSVPKNFMELLTNQEAQQWVSGWRLNADNVLWGGHKVFMVKPEEPFQPVKEATQL", "note": "[S209N]", "area with substrate ENLYHQS": 0.0653, "area with substrate ENLYLQS": 0.0804, "area with substrate ENLYNQS": 0.0452, "area with substrate ENLYPQS": 0.0675, "area with substrate ENLYTQS": 0.0779, "area with substrate ENLYWQS": 0.0553, "area with substrate ENLYYQS": 0.0666}
{"variant": "MGESLFKGPRDYNPISSSICHLTNESDGHTTSLYGIGFGPFIITNKHLFRRNNGTLVVQSLHGVFKVKDTTTLQQHLVDGRDMIIIRMPKDFPPFPQKLKFREPQREERICLVTTNFQTKSMSSMVSDTSCTFPSGDGIFWKHWIQTKDGQCGSPLVSTRDGFIVGIHSASNFTNTNNYFTSVPKNFMELLTNQEAQQWVSGWRLNADSVIWGGHKVFMVKPEEPFQPVKEATQL", "note": "[L211I]", "area with substrate ENLYHQS": 0.0769, "area with substrate ENLYIQS": 0.126}
{"variant": "MGESLFKGPRDYNPISSSICHLTNESDGHTTSLYGIGFGPFIITNKHLFRRNNGTLVVQSLHGVFKVKDTTTLQQHLVDGRDMIIIRMPKDFPPFPQKLKFREPQREERICLVTTNFQTKSMSSMVSDTSCTFPSGDGIFWKHWIQTKDGQCGSPLVSTRDGFIVGIHSASNFTNTNNYFTSVPKNFMELLTNQEAQQWVSGWRLNADSVLWHGHKVFMVKPEEPFQPVKEATQL", "note": "[G213H]", "area with substrate ENLYHQS": 0.0695, "area with substrate ENLYIQS": 0.0791, "area with substrate ENLYMQS": 0.0669, "area with substrate ENLYNQS": 0.0454, "area with substrate ENLYQQS": 0.0543, "area with substrate ENLYSQS": 0.0621, "area with substrate ENLYYQS": 0.0553}
{"variant": "MGESLFKGPRDYNPISSSICHLTNESDGHTTSLYGIGFGPFIITNKHLFRRNNGTLVVQSLHGVFKVKDTTTLQQHLVDGRDMIIIRMPKDFPPFPQKLKFREPQREERICLVTTNFQTKSMSSMVSDTSCTFPSGDGIFWKHWIQTKDGQCGSPLVSTRDGFIVGIHSASNFTNTNNYFTSVPKNFMELLTNQEAQQWVSGWRLNADSVLWGWHKVFMVKPEEPFQPVKEATQL", "note": "[G214W]", "area with substrate ENLYHQS": 0.0632, "area with substrate ENLYIQS": 0.0817, "area with substrate ENLYMQS": 0.0721, "area with substrate ENLYVQS": 0.0802, "area with substrate ENLYWQS": 0.0509}
{"variant": "MGESLFKGPRDYNPISSSICHLTNESDGHTTSLYGIGFGPFIITNKHLFRRNNGTLVVQSLHGVFKVKDTTTLQQHLVDGRDMIIIRMPKDFPPFPQKLKFREPQREERICLVTTNFQTKSMSSMVSDTSCTFPSGDGIFWKHWIQTKDGQCGSPLVSTRDGFIVGIHSASNFTNTNNYFTSVPKNFMELLTNQEAQQWVSGWRLNADSVLWGGHKVFMVKPEEPVQPVKEATQL", "note": "[F226V]", "area with substrate ENLYHQS": 0.0751, "area with substrate ENLYMQS": 0.0836}
{"variant": "MGESLFKGPRDYNPISSSICHLTNESDGHTTSLYGIGFGPFIITNKHLFRRNNGTLVVQSLHGVFKVKDTTTLQQHLVDGRDMIIIRMPKDFPPFPQKLKFREPQREERICLVTTNFQTKSMSSMVSDTSCTFPSGDGIFWKHWIQTKDGQCGSPLVSTRDGFIVGIHSASNFTNTNNYFTSVPKNFMELLTNQEAQQWVSGWRLNADSVLWGGHKVFMVKPEEPFQPVKEATQF", "note": "[L235F]", "area with substrate ENLYHQS": 0.0776, "area with substrate ENLYKQS": 0.041, "area with substrate ENLYMQS": 0.0812, "area with substrate ENLYNQS": 0.06, "area with substrate ENLYTQS": 0.0803, "area with substrate ENLYVQS": 0.0807, "area with substrate ENLYWQS": 0.128}
{"variant": "MGESLFKGPRDYNPISSSICHLTNESDGHTTSLYGIGEGPFIITNKHLFRRNNGTLVVQSLHGVFKVKDTTTLQQHLVDGRDMIIIRMPKDFPPFPQKLKFREPQREERICLVTTNFQTKSMSSMVSDTSCTFPSGDGIFWKHWIQTKDGQCGSPLVSTRDGFIVGIHSASNFTNTNNYFTSVPKNFMELLTNQEAQQWVSGWRLNADSVLWGGHKVFMVKPEEPFQPVKEATQL", "note": "[F38E]", "area with substrate ENLYIQS": 0.0681, "area with substrate ENLYYQS": 0.0549}
{"variant": "MGESLFKGPRDYNPISSSICHLTNESDGHTTSLYGIGFGPFIITNKHLFRRNNGTLVVQSLHGVFKVKDTTTLQQHLVDGRDMIIIRMPMDFPPFPQKLKFREPQREERICLVTTNFQTKSMSSMVSDTSCTFPSGDGIFWKHWIQTKDGQCGSPLVSTRDGFIVGIHSASNFTNTNNYFTSVPKNFMELLTNQEAQQWVSGWRLNADSVLWGGHKVFMVKPEEPFQPVKEATQL", "note": "[K90M]", "area with substrate ENLYIQS": 0.127, "area with substrate ENLYKQS": 0.0655, "area with substrate ENLYMQS": 0.0738, "area with substrate ENLYYQS": 0.0601}
{"variant": "MGESLFKGPRDYNPISSSICHLTNESDGHTTSLYGIGFGPFIITNKHLFRRNNGTLVVQSLHGVFKVKDTTTLQQHLVDGRDMIIIRMPKDFPNFPQKLKFREPQREERICLVTTNFQTKSMSSMVSDTSCTFPSGDGIFWKHWIQTKDGQCGSPLVSTRDGFIVGIHSASNFTNTNNYFTSVPKNFMELLTNQEAQQWVSGWRLNADSVLWGGHKVFMVKPEEPFQPVKEATQL", "note": "[P94N]", "area with substrate ENLYIQS": 0.0884, "area with substrate ENLYLQS": 0.0775, "area with substrate ENLYSQS": 0.0736, "area with substrate ENLYTQS": 0.0878, "area with substrate ENLYWQS": 0.0838}
{"variant": "MGESLFKGPRDYNPISSSICHLTNESDGHTTSLYGIGFGPFIITNKHLFRRNNGTLVVQSLHGVFKVKDTTTLQQHLVDGRDMIIIRMPKDFPPFPGKLKFREPQREERICLVTTNFQTKSMSSMVSDTSCTFPSGDGIFWKHWIQTKDGQCGSPLVSTRDGFIVGIHSASNFTNTNNYFTSVPKNFMELLTNQEAQQWVSGWRLNADSVLWGGHKVFMVKPEEPFQPVKEATQL", "note": "[Q97G]", "area with substrate ENLYIQS": 0.131, "area with substrate ENLYQQS": 0.0316}
{"variant": "MGESLFKGPRDYNPISSSICHLTNESDGHTTSLYGIGFGPFIITNKHLFRRNNGTLVVQSLHGVFKVKDTTTLQQHLVDGRDMIIIRMPKDFPPFPQKLKFREPQREERICLVTTNFQTKSMSSMVSDTSCTFPSGDGIFWKHWIQTKDGQCGSPLVETRDGFIVGIHSASNFTNTNNYFTSVPKNFMELLTNQEAQQWVSGWRLNADSVLWGGHKVFMVKPEEPFQPVKEATQL", "note": "[S158E]", "area with substrate ENLYIQS": 0.0865, "area with substrate ENLYNQS": 0.0271, "area with substrate ENLYQQS": 0.0474}
{"variant": "MGESLFKGPRDYNPISSSICHLTNESDGHTTSLYGIGFGPFIITNKHLFRRNNGTLVVQSLHGVFKVKDTTTLQQHLVDGRDMIIIRMPKDFPPFPQKLKFREPQREERICLVTTNFQTKSMSSMVSDTSCTFPSGDGIFWKHWIQTKDGQCGSPLVSTRDGNIVGIHSASNFTNTNNYFTSVPKNFMELLTNQEAQQWVSGWRLNADSVLWGGHKVFMVKPEEPFQPVKEATQL", "note": "[F163N]", "area with substrate ENLYIQS": 0.108, "area with substrate ENLYSQS": 0.0621, "area with substrate ENLYVQS": 0.0939, "area with substrate ENLYWQS": 0.0701}
